# Measurements: the supplement of paper PMC8728848
# Some of the results follow.
# Tests used:
# Assay in all cases: glycan array binding signal (z-score within array); higher = stronger binding
# Settings in all cases: glycan notation: IUPAC condensed, linker removed
# [1] = target: Gal(b1-4)GlcNAc(b1-3)Gal(b1-4)Glc
# Summary of the method: (§1)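 Glycan array binding is given as a within-array Z-score, which can be read as non-binding when negative. The arrays, 3228 of them, came from the Consortium for Functional Glycomics database and were retained only where the protein sequence was available. Z-scores were averaged across arrays of the same protein sequence at different concentrations or buffers and across linkers.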
# [2] = target: Gal(b1-4)GlcNAc(b1-3)Gal(b1-4)GlcNAc
# Summary of the method: as §1
# [3] = target: Gal(b1-4)GlcNAc(b1-3)Gal(b1-4)GlcNAc(b1-2)Man(a1-3)[Gal(b1-4)GlcNAc(b1-3)Gal(b1-4)GlcNAc(b1-2)Man(a1-6)]Man(b1-4)GlcNAc(b1-4)GlcNAc
# Summary of the method: as §1
# [4] = target: Gal(b1-4)GlcNAc(b1-3)Gal(b1-4)GlcNAc(b1-2)Man(a1-3)[Gal(b1-4)GlcNAc(b1-3)Gal(b1-4)GlcNAc(b1-2)Man(a1-6)]Man(b1-4)GlcNAc(b1-4)[Fuc(a1-6)]GlcNAc
# Summary of the method: as §1
# [5] = target: Gal(b1-4)GlcNAc(b1-3)Gal(b1-4)GlcNAc(b1-2)[Gal(b1-4)GlcNAc(b1-3)Gal(b1-4)GlcNAc(b1-6)]Man(a1-6)[Gal(b1-4)GlcNAc(b1-3)Gal(b1-4)GlcNAc(b1-2)Man(a1-3)]Man(b1-4)GlcNAc(b1-4)GlcNAc
# Summary of the method: as §1
# [6] = target: Gal(b1-4)GlcNAc(b1-3)Gal(b1-4)GlcNAc(b1-2)[Gal(b1-4)GlcNAc(b1-3)Gal(b1-4)GlcNAc(b1-6)]Man(a1-6)[Gal(b1-4)GlcNAc(b1-3)Gal(b1-4)GlcNAc(b1-2)Man(a1-3)]Man(b1-4)GlcNAc(b1-4)[Fuc(a1-6)]GlcNAc
# Summary of the method: as §1
# [7] = target: Gal(b1-4)GlcNAc(b1-3)Gal(b1-4)GlcNAc(b1-3)Gal(b1-4)GlcNAc
# Summary of the method: as §1
# [8] = target: Gal(b1-4)GlcNAc(b1-3)Gal(b1-4)GlcNAc(b1-3)Gal(b1-4)GlcNAc(b1-2)Man(a1-3)[Gal(b1-4)GlcNAc(b1-3)Gal(b1-4)GlcNAc(b1-3)Gal(b1-4)GlcNAc(b1-2)Man(a1-6)]Man(b1-4)GlcNAc(b1-4)GlcNAc
# Summary of the method: as §1
# [9] = target: Gal(b1-4)GlcNAc(b1-3)Gal(b1-4)GlcNAc(b1-3)Gal(b1-4)GlcNAc(b1-2)Man(a1-3)[Gal(b1-4)GlcNAc(b1-3)Gal(b1-4)GlcNAc(b1-3)Gal(b1-4)GlcNAc(b1-2)Man(a1-6)]Man(b1-4)GlcNAc(b1-4)[Fuc(a1-6)]GlcNAc
# Summary of the method: as §1
# [10] = target: Gal(b1-4)GlcNAc(b1-3)Gal(b1-4)GlcNAc(b1-3)Gal(b1-4)GlcNAc(b1-2)[Gal(b1-4)GlcNAc(b1-3)Gal(b1-4)GlcNAc(b1-3)Gal(b1-4)GlcNAc(b1-6)]Man(a1-6)[Gal(b1-4)GlcNAc(b1-3)Gal(b1-4)GlcNAc(b1-3)Gal(b1-4)GlcNAc(b1-2)Man(a1-3)]Man(b1-4)GlcNAc(b1-4)[Fuc(a1-6)]GlcNAc
# Summary of the method: as §1
# [11] = target: Gal(b1-4)GlcNAc(b1-3)Gal(b1-4)GlcNAc(b1-3)Gal(b1-4)GlcNAc(b1-3)Gal(b1-4)GlcNAc(b1-2)Man(a1-3)[Gal(b1-4)GlcNAc(b1-3)Gal(b1-4)GlcNAc(b1-3)Gal(b1-4)GlcNAc(b1-3)Gal(b1-4)GlcNAc(b1-2)Man(a1-6)]Man(b1-4)GlcNAc(b1-4)GlcNAc
# Summary of the method: as §1
# [12] = target: Gal(b1-4)GlcNAc(b1-3)Gal(b1-4)GlcNAc(b1-3)Gal(b1-4)GlcNAc(b1-3)Gal(b1-4)GlcNAc(b1-2)Man(a1-3)[Gal(b1-4)GlcNAc(b1-3)Gal(b1-4)GlcNAc(b1-3)Gal(b1-4)GlcNAc(b1-3)Gal(b1-4)GlcNAc(b1-2)Man(a1-6)]Man(b1-4)GlcNAc(b1-4)[Fuc(a1-6)]GlcNAc
# Summary of the method: as §1
# [13] = target: Gal(b1-4)GlcNAc(b1-3)Gal(b1-4)GlcNAc(b1-3)Gal(b1-4)GlcNAc(b1-3)Gal(b1-4)GlcNAc(b1-2)[Gal(b1-4)GlcNAc(b1-3)Gal(b1-4)GlcNAc(b1-3)Gal(b1-4)GlcNAc(b1-3)Gal(b1-4)GlcNAc(b1-6)]Man(a1-6)[Gal(b1-4)GlcNAc(b1-3)Gal(b1-4)GlcNAc(b1-3)Gal(b1-4)GlcNAc(b1-3)Gal(b1-4)GlcNAc(b1-2)Man(a1-3)]Man(b1-4)GlcNAc(b1-4)[Fuc(a1-6)]GlcNAc
# Summary of the method: as §1
# [14] = target: Gal(b1-4)GlcNAc(b1-3)Gal(b1-4)GlcNAc(b1-3)Gal(b1-4)GlcNAc(b1-3)Gal(b1-4)GlcNAc(b1-3)Gal(b1-4)GlcNAc(b1-2)Man(a1-3)[Gal(b1-4)GlcNAc(b1-3)Gal(b1-4)GlcNAc(b1-3)Gal(b1-4)GlcNAc(b1-3)Gal(b1-4)GlcNAc(b1-3)Gal(b1-4)GlcNAc(b1-2)Man(a1-6)]Man(b1-4)GlcNAc(b1-4)GlcNAc
# Summary of the method: as §1
# [15] = target: Gal(b1-4)GlcNAc(b1-3)Gal(b1-4)GlcNAc(b1-3)Gal(b1-4)GlcNAc(b1-3)Gal(b1-4)GlcNAc(b1-3)Gal(b1-4)GlcNAc(b1-2)Man(a1-3)[Gal(b1-4)GlcNAc(b1-3)Gal(b1-4)GlcNAc(b1-3)Gal(b1-4)GlcNAc(b1-3)Gal(b1-4)GlcNAc(b1-3)Gal(b1-4)GlcNAc(b1-2)Man(a1-6)]Man(b1-4)GlcNAc(b1-4)[Fuc(a1-6)]GlcNAc
# Summary of the method: as §1
# [16] = target: Gal(b1-4)GlcNAc(b1-3)Gal(b1-4)GlcNAc(b1-3)Gal(b1-4)GlcNAc(b1-3)Gal(b1-4)GlcNAc(b1-3)Gal(b1-4)GlcNAc(b1-2)[Gal(b1-4)GlcNAc(b1-3)Gal(b1-4)GlcNAc(b1-3)Gal(b1-4)GlcNAc(b1-3)Gal(b1-4)GlcNAc(b1-3)Gal(b1-4)GlcNAc(b1-6)]Man(a1-6)[Gal(b1-4)GlcNAc(b1-3)Gal(b1-4)GlcNAc(b1-3)Gal(b1-4)GlcNAc(b1-3)Gal(b1-4)GlcNAc(b1-3)Gal(b1-4)GlcNAc(b1-2)Man(a1-3)]Man(b1-4)GlcNAc(b1-4)[Fuc(a1-6)]GlcNAc
# Summary of the method: as §1
# [17] = target: Gal(b1-4)GlcNAc(b1-3)Gal(b1-4)GlcNAc(b1-3)Gal(b1-4)GlcNAc(b1-3)Gal(b1-4)GlcNAc(b1-3)Gal(b1-4)GlcNAc(b1-3)Gal(b1-4)GlcNAc(b1-2)Man(a1-3)[Gal(b1-4)GlcNAc(b1-3)Gal(b1-4)GlcNAc(b1-3)Gal(b1-4)GlcNAc(b1-3)Gal(b1-4)GlcNAc(b1-3)Gal(b1-4)GlcNAc(b1-3)Gal(b1-4)GlcNAc(b1-2)Man(a1-6)]Man(b1-4)GlcNAc(b1-4)GlcNAc
# Summary of the method: as §1
# [18] = target: Gal(b1-4)GlcNAc(b1-3)Gal(b1-4)GlcNAc(b1-3)GalNAc
# Summary of the method: as §1
# [19] = target: Gal(b1-4)GlcNAc(b1-3)Gal(b1-4)GlcNAc(b1-3)[Gal(b1-4)GlcNAc(b1-3)Gal(b1-4)GlcNAc(b1-6)]GalNAc
# Summary of the method: as §1
binder,measurement,setting,value
SP16663B-bot-321-25-321 (Bacteroides ovatus) (protein) DDDDEVTMNSKFYLSTKVFPVDSYEASLSVILKDNSVVVNELQPNYRFVACATERLSKDVKITADSDDNLVSAYNKANDTEYNILPAENYSFTNKTVTIENGESVSGDSIKIELLNVGSLTTEGGYLLPVTISSIEGNNLDALSSNRGVVYLKIQNIHVNVESGQPAEGTLIADRSGWTVKVAPTTRGDAKNLIDGTNSDVARDGGAEYWLTVDIGKVQTLTGIRNKCYASSYSPTAVEVFTSSDGAKWKSIGAVTISKSGTQYIKFSKAVETRYLKYYVKQGPNTVSLTEFDLYAK,glycan array binding signal (z-score),[1],-0.281
same,glycan array binding signal (z-score),[2],0.031
same,glycan array binding signal (z-score),[3],0.366
same,glycan array binding signal (z-score),[4],0.071
same,glycan array binding signal (z-score),[5],0.728
same,glycan array binding signal (z-score),[6],0.209
same,glycan array binding signal (z-score),[7],-0.425
same,glycan array binding signal (z-score),[8],0.449
same,glycan array binding signal (z-score),[9],0.195
same,glycan array binding signal (z-score),[10],-0.645
same,glycan array binding signal (z-score),[11],-0.442
same,glycan array binding signal (z-score),[12],0.288
same,glycan array binding signal (z-score),[13],0.458
same,glycan array binding signal (z-score),[14],-0.033
same,glycan array binding signal (z-score),[15],-0.192
same,glycan array binding signal (z-score),[16],0.068
same,glycan array binding signal (z-score),[17],0.751
same,glycan array binding signal (z-score),[18],-0.196
same,glycan array binding signal (z-score),[19],1.04
